In the supplement of paper PMC4723716 one finds viability index data, which are given here for 70 molecules.

Structures are written as SMILES. ± gives the uncertainty stated by the source. The full ranking holds about 9,900 compounds; the median of “viability index relative to DMSO control” is about 1, and the lowest 2% start at about 0.85. The list shows a part of the results.

The test system of this test is Plasmodium falciparum NF54 stage V gametocytes. Put plainly: viability index relative to DMSO control (fraction); higher = less gametocyte killing. The note with it: 2.5 µM, library set: Broad Institute DOS, incubation time: 72 h. Summed up: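 P. falciparum NF54 stage V gametocytes (serum-free medium, 0.75% gametocytemia, 1.25% hematocrit) were exposed to compound at 2.5 µM for 72 hr at 37°C under low oxygen, then stained with MitoTracker Red CMXRos and saponin for one to two hours. Red particles of 20–70 µm2 in one field per well were counted, and the viability index is that count scaled to the plate mean of solvent-only wells.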
`O=C(NCC1CCCCC1)[C@H]1[C@H](CO)[C@H]2Cn3c(ccc(-c4ccc(F)cc4)c3=O)[C@@H]1N2` had a viability index of 1.04 ± 0.015.

On to `COc1ccccc1NC(=O)N1CCCCN2[C@@H](CO)[C@H](c3ccc(-c4cccc(C#N)c4)cc3)[C@@H]2C1`, for which the viability index was determined as 0.979 ± 0.022.

Molecule `O=C(CN1CCOCC1)NC[C@H]1N[C@H](CO)[C@@H]1c1ccc(-c2ccccc2)cc1` returned a viability index of 0.983 ± 0.05.

For the molecule `CCCC(=O)N1C[C@]2(CN(C2)C(=O)C2CC2)c2c([C@H]1CO)n(C)c1cc(OC)ccc21`, the viability index was found to be 1.05 ± 0.035.

`C[C@@H]1CN([C@@H](C)CO)C(=O)c2cc(NC(=O)Nc3ccc(C(F)(F)F)cc3)ccc2O[C@@H](C)CCCCO[C@H]1CN(C)CC1CCCCC1` registered a viability index of 1.04 ± 0.015.

On to `C/C=C/c1ccc([C@H]2[C@@H](CO)N(C(=O)C3CC3)[C@H]2CNC(=O)NC(C)C)cc1`, for which the viability index was 0.989 ± 0.018.

In turn, `CCC(=O)N1C[C@]2(CCN(Cc3ccccc3Cl)CC2)c2c([nH]c3cc(OC)ccc23)[C@H]1CO` yielded a viability index of 1.01 ± 0.026.

The molecule `O=C(c1cc2c(c(-c3cccc(Br)c3)n1)[C@H](CCO)NC2)N1CCCCC1` yielded a viability index of 0.9968 ± 0.0045.

`COc1ccc2c3c([nH]c2c1)[C@H](CO)N(C[C@]31CCN(C)CC1)C(=O)Cc1ccccc1` came in with a viability index of 1.01 ± 0.1.

`C[C@@H]1CCCCO[C@H](CN(C)C(=O)NC2CCCCC2)[C@@H](C)CN([C@H](C)CO)C(=O)c2cc(N(C)C)ccc2O1` returned a viability index of 1.14 ± 0.11.

In the case of `O=C(C[C@H]1CC[C@H]2[C@@H](COC[C@@H](O)CN2S(=O)(=O)c2cccc(Cl)c2)O1)N1CCOCC1`, the viability index is 0.968 ± 0.11.

Take `COc1ccc2c3c([C@H](CO)N(C[C@]33CCN(CC3)C(=O)c3ccc4OCOc4c3)C(=O)Nc3ccc(F)cc3)n(C)c2c1`: the viability index worked out at 0.846 ± 0.055.

In the case of `C[C@@H]1CN([C@@H](C)CO)C(=O)c2cc(-c3ccc(C#N)cc3)cnc2O[C@@H]1CN(C)Cc1cccnc1`, the viability index is 1.05 ± 0.017.

For the molecule `CN(C)CC(=O)N[C@H]1CC[C@@H](CCNC(=O)C2CCC2)O[C@@H]1CO`, the viability index was found to be 1.13 ± 0.083.

On to `COc1ccc(C#Cc2cccc(-c3nc(C(=O)NCc4ccc5c(c4)OCO5)cc4c3[C@@H](CCO)N(S(=O)C(C)(C)C)C4)c2)cc1OC` (stereo not given in full), for which the viability index was 0.9061 ± 0.0023.

On to `CN(C)C(=O)c1ccc(-c2ccc([C@@H]3[C@@H](CO)N(C(=O)C4CC4)[C@H]3C#N)cc2)cc1`, for which the viability index was 1.12 ± 0.068.

Molecule `CCCNC(=O)N1[C@H](C#N)[C@@H](c2ccc(C#Cc3cccc(F)c3)cc2)[C@@H]1CO` gave a viability index of 0.981 ± 0.013.

For `CN(C)C(=O)C[C@@H]1C=C[C@H](NC(=O)c2ccc(F)cc2)[C@@H](CO)O1`, the viability index was found to be 1.11 ± 0.097.

The molecule `CCS(=O)(=O)Nc1ccc2c(c1)C(=O)N(C)[C@H]1CC[C@@H](CC(=O)NCc3ccccc3F)O[C@@H]1CO2` showed a viability index of 1.09 ± 0.07.

With `C[C@@H]1CN([C@@H](C)CO)C(=O)Cc2cc(NC(=O)CCN3CCOCC3)ccc2O[C@H]1CN(C)Cc1ccc(C(=O)O)cc1`, the viability index amounted to 0.992 ± 0.027.

As to `CO[C@@H]1CN(C)C(=O)c2cc(NS(C)(=O)=O)ccc2OC[C@@H](C)N(Cc2cncnc2)C[C@@H]1C`, the viability index was 1.05 ± 0.17.

As for `O=C(c1ccc2c(c1)OCO2)N1C[C@H]2[C@@H](c3ccccc31)[C@H](CO)N2Cc1cccnc1`, the viability index amounted to 1.01 ± 0.03.

In turn, `O=C(C[C@@H]1CC[C@H]2NC[C@@H](O)COC[C@@H]2O1)NCc1ccc2c(c1)OCO2` yielded a viability index of 1.07 ± 0.015.

Turning to `CCN1CC(=O)N2[C@H](CO)[C@H](c3ccc(Br)cc3)[C@@H]2C1`, the viability index is 1.04 ± 0.097.

In turn, `CCNC(=O)C[C@@H]1CC[C@H]2[C@@H](COC[C@@H](O)CN2C(=O)c2ccccn2)O1` had a viability index of 1.02 ± 0.045.

Consider `C[C@@H]1CN([C@@H](C)CO)C(=O)Cc2cc(NS(=O)(=O)c3cn(C)cn3)ccc2O[C@H]1CN(C)Cc1ccc2c(c1)OCO2`, for which the viability index was found to be 1.06 ± 0.067.

Molecule `COCC(=O)N1CC(=O)N2[C@H](CO)[C@@H](c3ccc(C#CC4CC4)cc3)[C@H]2C1` displayed a viability index of 1.04 ± 0.024.

`O=C1CCCCn2cc(nn2)COC[C@H](Cc2ccccc2)N1`: the viability index came out at 0.986 ± 0.064.

The molecule `CN(C)CC(=O)N[C@H]1CC[C@H](CCNC(=O)C2CCC2)O[C@@H]1CO` gave a viability index of 1.11 ± 0.071.

`CN1CCN(C(=O)C[C@H]2CC[C@H]3[C@@H](COC[C@@H](O)CN3Cc3cccc(-c4ccncc4)c3)O2)CC1`: the viability index is 1.1 ± 0.026.

`C/C=C/c1ccc([C@H]2[C@@H]3CN(S(=O)(=O)c4cn(C)cn4)C[C@H]2N3)cc1` came in with a viability index of 1.08 ± 0.018.

In the case of `C[C@H](CO)N1C[C@H](C)[C@H](CN(C)C(=O)NC2CCCCC2)OCc2ccccc2-c2ccccc2C1=O`, the viability index turned out to be 1.03 ± 0.03.

The molecule `O=C(C[C@@H]1C=C[C@@H](NC(=O)Cc2ccccn2)[C@@H](CO)O1)NCCc1ccncc1` showed a viability index of 0.977 ± 0.047.

Molecule `COc1ccc2c3c([nH]c2c1)[C@@H](CO)N(C[C@]31CCN(CC2CCCC2)CC1)C(=O)CN1CCOCC1` displayed a viability index of 1.05 ± 0.028.

As for `Cc1noc(C)c1S(=O)(=O)N(C)C[C@H]1OCc2ccccc2-c2c(n(C)c3ccccc23)C(=O)N([C@@H](C)CO)C[C@H]1C`, the viability index worked out at 0.9973 ± 0.0039.

Take `O=C(c1ccccn1)N1C[C@H]2[C@@H](c3ccccc31)[C@@H](CO)N2C(=O)C1CCCCC1`: the viability index turned out to be 1.09 ± 0.067.

For `COc1ccc(S(=O)(=O)N(C)C[C@H]2Oc3ccc(NC(=O)Cc4cn(C)c5ccccc45)cc3C(=O)N([C@@H](C)CO)C[C@@H]2C)cc1`, the viability index turned out to be 1.063 ± 0.01.

`CN1C[C@@H]2[C@H](c3ccccc31)[C@H](CO)N2Cc1ccccc1Cl` returned a viability index of 1.06 ± 0.051.

`COc1ccccc1C(=O)Nc1ccc2c(c1)C(=O)N(C)[C@H]1CC[C@H](CC(=O)Nc3cc(F)ccc3F)O[C@@H]1CO2` yielded a viability index of 1.07 ± 0.15.

Turning to `COc1cccc(-c2ccc3n(c2=O)C[C@@H]2[C@@H](CO)[C@H](C(=O)NCC4CC4)[C@H]3N2S(C)(=O)=O)c1`, the viability index is 1.039 ± 0.0088.

Take `C[C@@H]1CN([C@H](C)CO)C(=O)CCCn2nncc2CO[C@@H]1CN(C)C(=O)CCC(F)(F)F`: the viability index was 1.04 ± 0.12.

Take `O=C(C1CCC1)N1C[C@@H]2[C@H](c3ccccc31)[C@H](CO)N2Cc1ccccc1`: the viability index turned out to be 1.05 ± 0.017.

In the case of `C[C@@H]1CCCCO[C@@H](CN(C)C(=O)c2ccncc2)[C@@H](C)CN([C@@H](C)CO)C(=O)c2cc(NC(=O)CCC(F)(F)F)ccc2O1`, the viability index was 1.087 ± 0.0063.

Molecule `CN(C)C(=O)C[C@@H]1C=C[C@@H](NC(=O)c2ccc(F)cc2)[C@@H](CO)O1` registered a viability index of 1.08 ± 0.15.

`Cc1cccc(S(=O)(=O)N2CC[C@@H]3[C@H]2c2cc(-c4ccccc4F)ccc2N[C@@H]3CO)c1` registered a viability index of 0.926 ± 0.08.

`CO[C@H]1CN(C)C(=O)c2cc(NC(=O)C3CCOCC3)ccc2OC[C@H](C)NC[C@H]1C` had a viability index of 0.947 ± 0.054.

`CN1CCN(C(=O)C[C@@H]2CC[C@H]3[C@H](COc4ccc(NC(=O)c5cccs5)cc4C(=O)N3C)O2)CC1` came in with a viability index of 1.09 ± 0.048.

In turn, `O=C(C[C@H]1CC[C@@H](NC(=O)C2CC2)[C@@H](CO)O1)Nc1ccccc1` registered a viability index of 0.986 ± 0.12.

The molecule `CCC(=O)N1C[C@H](C)[C@@H](OC)CN(C)C(=O)c2cc(NC(=O)Nc3ccc(Cl)cc3)ccc2OC[C@@H]1C` gave a viability index of 1.04 ± 0.024.

Turning to `C[C@@H]1CN([C@@H](C)CO)C(=O)c2cc(-c3ccncc3)cnc2O[C@H]1CN(C)C(=O)CN1CCOCC1`, the viability index came out at 1.008 ± 0.006.

`CO[C@H]1CN(C)C(=O)c2ccc(NC(=O)Nc3ccccc3F)cc2OC[C@H](C)N(CC2CC2)C[C@H]1C` gave a viability index of 0.9705 ± 0.006.

`COCCNC(=O)C[C@@H]1CC[C@H]2[C@@H](COc3ccc(NS(=O)(=O)c4ccc(Cl)cc4)cc3C(=O)N2C)O1` registered a viability index of 1.09 ± 0.06.

`O=C(N[C@H]1C=C[C@@H](CC(=O)N2CCC(Cc3ccccc3)CC2)O[C@H]1CO)c1cnccn1`: the viability index came out at 0.904 ± 0.15.

In the case of `CN1C(=O)c2cc(NC(=O)Cc3cccs3)ccc2OC[C@H]2O[C@H](CC(=O)N[C@H]3CCN(Cc4ccccc4)C3)CC[C@@H]21`, the viability index came to 1.06 ± 0.08.

Molecule `CNC[C@@H]1Oc2c(NC(=O)Nc3cccc4ccccc34)cccc2C(=O)N([C@@H](C)CO)C[C@H]1C` returned a viability index of 0.928 ± 0.02.

`CC(C)CC#Cc1ccc([C@@H]2[C@@H](CO)N3C(=O)CN(S(=O)(=O)c4cccc(F)c4)C[C@H]23)cc1` displayed a viability index of 0.9179 ± 0.008.

In the case of `CCCN1C[C@H](C)[C@@H](OC)CN(C)C(=O)c2cc(NC(=O)Nc3cccc(F)c3)ccc2OC[C@H]1C`, the viability index was 0.949 ± 0.1.

Molecule `C/C=C/c1ccc([C@@H]2[C@H]3CNC[C@@H]2N3C(=O)Nc2ccc3c(c2)OCO3)cc1` yielded a viability index of 1.085 ± 0.0098.

In turn, `O=C(C[C@@H]1C=C[C@@H](NS(=O)(=O)c2ccc(F)cc2)[C@@H](CO)O1)N1CCc2ccccc2C1` yielded a viability index of 0.96 ± 0.069.

`CO[C@H]1CN(C)C(=O)c2ccc(NC(C)=O)cc2OC[C@H](C)N(Cc2cccc(F)c2)C[C@@H]1C` showed a viability index of 1.05 ± 0.068.

`COc1ccccc1NC(=O)N1C[C@H](O)COC[C@H]2O[C@@H](CC(=O)N3CCC(Cc4ccccc4)CC3)CC[C@@H]21` returned a viability index of 1.03 ± 0.083.

In the case of `COc1cccc(S(=O)(=O)N2CCCCN3[C@@H](CO)[C@@H](c4ccc(C#CCC(C)C)cc4)[C@@H]3C2)c1`, the viability index was 0.393 ± 0.021.

Regarding `COc1cccc(NC(=O)C[C@@H]2CC[C@@H]3[C@H](COc4ccc(NS(=O)(=O)c5cccc(F)c5)cc4C(=O)N3C)O2)c1`, the viability index amounted to 1.16 ± 0.12.

With `C[C@@H]1CN([C@H](C)CO)C(=O)Cc2cc(NC(=O)c3ccncc3)ccc2O[C@@H]1CN(C)C(=O)Nc1ccc(F)cc1`, the viability index amounted to 1 ± 0.11.

In the case of `CC(C)NC(=O)N1[C@@H]2CNC[C@H]1[C@H]2c1ccc(/C=C/c2ccccc2)cc1`, the viability index came to 1.03 ± 0.071.

As for `C/C=C/c1ccc2n(c1=O)C[C@@H]1[C@@H](CO)[C@H](C(=O)NCC(F)(F)F)N(C(=O)c3cccnc3)[C@H]21.C/C=C\c1ccc2n(c1=O)C[C@@H]1[C@@H](CO)[C@H](C(=O)NCC(F)(F)F)N(C(=O)c3cccnc3)[C@H]21`, the viability index stood at 1.07 ± 0.063.

As to `CO[C@H]1CN(C)C(=O)c2ccc(NC(=O)c3cc(C)on3)cc2OC[C@@H](C)NC[C@@H]1C`, the viability index amounted to 1 ± 0.019.

Molecule `O=C(C1CCOCC1)N1C[C@H]2[C@@H](c3ccccc31)[C@@H](CO)N2C(=O)Nc1ccccc1F` had a viability index of 1.03 ± 0.063.

`COc1ccc(NC(=O)N(C)C[C@H]2Oc3ccc(NC(=O)CCN4CCOCC4)cc3C(=O)N([C@H](C)CO)C[C@@H]2C)cc1`: the viability index is 1.02 ± 0.043.

Take `N#C[C@@H]1[C@H](c2ccc(C#Cc3ccccc3F)cc2)[C@@H](CO)N1C(=O)c1cccnc1`: the viability index worked out at 1.02 ± 0.071.
